Test results published in paper PMC4336329 (PLoS ONE, 2015).
The campaign covered roughly 310,000 compounds. About 2,200 (0.71%) showed an effect of 50% or more. Effects have a minus sign here. The list shows a part of the results.

Molecular target: human ether-à-go-go-related gene (hERG) potassium channel (human, UniProt Q12809)
Assay: primary screen, population patch clamp on CHO cells stably expressing hERG

human ether-à-go-go-related gene (hERG) potassium channel, sequence (Q12809 whole entry, looked up): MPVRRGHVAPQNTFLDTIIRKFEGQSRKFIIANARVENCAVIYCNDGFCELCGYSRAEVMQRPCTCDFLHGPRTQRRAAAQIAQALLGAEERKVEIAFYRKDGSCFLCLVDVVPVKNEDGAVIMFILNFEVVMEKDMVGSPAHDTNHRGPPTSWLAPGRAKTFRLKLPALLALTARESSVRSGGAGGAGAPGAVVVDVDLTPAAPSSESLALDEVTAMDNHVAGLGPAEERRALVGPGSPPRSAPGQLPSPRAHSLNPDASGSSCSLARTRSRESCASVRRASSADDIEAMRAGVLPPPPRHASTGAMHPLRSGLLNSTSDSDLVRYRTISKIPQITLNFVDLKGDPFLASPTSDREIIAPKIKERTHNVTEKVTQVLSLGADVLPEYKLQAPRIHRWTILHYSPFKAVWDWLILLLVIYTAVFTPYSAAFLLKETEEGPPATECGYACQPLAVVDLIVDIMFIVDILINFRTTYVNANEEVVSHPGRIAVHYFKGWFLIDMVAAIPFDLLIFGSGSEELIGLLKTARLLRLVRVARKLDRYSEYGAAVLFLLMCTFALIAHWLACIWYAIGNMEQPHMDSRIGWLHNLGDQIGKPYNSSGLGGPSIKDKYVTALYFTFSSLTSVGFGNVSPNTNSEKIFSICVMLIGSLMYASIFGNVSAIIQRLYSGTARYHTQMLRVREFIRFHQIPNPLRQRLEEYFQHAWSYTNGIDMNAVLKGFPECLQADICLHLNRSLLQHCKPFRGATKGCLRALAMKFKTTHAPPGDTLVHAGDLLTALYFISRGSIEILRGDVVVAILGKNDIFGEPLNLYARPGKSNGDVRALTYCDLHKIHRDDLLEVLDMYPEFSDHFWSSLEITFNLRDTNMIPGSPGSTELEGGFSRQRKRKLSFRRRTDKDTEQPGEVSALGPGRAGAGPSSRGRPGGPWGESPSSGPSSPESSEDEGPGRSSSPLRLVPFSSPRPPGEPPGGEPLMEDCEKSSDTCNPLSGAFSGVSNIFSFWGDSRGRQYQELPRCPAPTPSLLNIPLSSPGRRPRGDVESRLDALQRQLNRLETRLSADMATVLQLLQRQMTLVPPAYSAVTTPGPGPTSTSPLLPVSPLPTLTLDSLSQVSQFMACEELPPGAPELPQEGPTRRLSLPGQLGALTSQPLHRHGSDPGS

| Compound | hERG current change (%, negative = inhibition) at 1uM [%] |
| --- | --- |
| CCOc1ccc(N2C(=O)CC(N3CCN(c4ccc(F)cc4)CC3)C2=O)cc1 (centres unmarked) | 6.41 |
| CCOCCCN1CN(S(=O)(=O)c2ccc(Cl)cc2)c2nc3ccccc3nc21 | 4.92 |
| C#CCn1c(S(=O)(=O)Cc2ccc(F)cc2)nc(-c2ccccc2)c1-c1ccccc1 | -4.44 |
| COC(=O)CSc1nnc(CNC(=O)c2ccc(S(=O)(=O)N(C)C)cc2)n1C | 12.9 |
| Cc1cc(C(F)F)nn1CC(=O)NC1CCCCCC1 | 14.4 |
| O=C(Nc1ccc(Cl)cc1)C1CCN(C(=O)c2cccs2)CC1 | 3.69 |
| COc1ccc(Nc2nc(-c3cccc([N+](=O)[O-])c3)nc3ccccc23)cc1 | 4.14 |
| CCCCn1c(CNC(=O)c2cccs2)nc2ccccc21 | -5.98 |
| Cc1ccc(S(=O)(=O)c2c(C)cc(C)nc2Oc2cccc(C)c2C)cc1 | 7.3 |
| Cc1ccccc1CN1CCC(n2nccc2NC(=O)c2ccc3c(c2)OCO3)CC1 | 9.88 |
| Cc1nc2ncnn2c(N2CCC(C(=O)NCC3CCCO3)CC2)c1Cc1ccccc1 (centres unmarked) | -4.94 |
| Cc1ccc(C(=O)NC(=S)Nc2ccccc2C(F)(F)F)c(C)c1 | 2.66 |
| Cc1ccc(NC(=O)CCN2C(=O)c3ccncc3C2=O)cc1 | 14.7 |
| CCn1c(N2CCN(C(=O)c3ccco3)CC2)nc2ccccc21 | -25.2 |
| CN1CCN(c2ccc3c(c2)S(=O)(=O)c2ccccc2C3=O)CC1 | 9.19 |
| COC(=O)C1=C(c2ccc(OC(F)(F)F)cc2)C[C@@H]2CC[C@H]1N2C(=O)NCc1ccc(F)cc1 | -8.39 |
| CC(=O)Nc1cc(C(=O)OC(C(=O)c2ccccc2)c2ccccc2)ccc1C (centres unmarked) | 9.32 |
| O=C(Nc1ccc(Br)cc1)c1cccc(N2C(=O)CCC2=O)c1 | 14.8 |
| COc1cc2c(C(=O)N3CCN(c4ccccc4F)CC3)cn(C)c(=O)c2cc1OC | 0.753 |
| O=C(O)c1ccc(S(=O)(=O)Cc2ccccc2)cc1 | 6.4 |
| CCOC(=O)c1c(/N=C/c2cc(C)ccc2O)sc2c1CCN(C)C2 | 11.6 |
| Cc1ccccc1OCCOc1ccccc1C=C(C#N)C#N | 7.81 |
| Cc1ccc(NC(=O)CC2COc3ccccc3O2)cc1 (centres unmarked) | 8.61 |

| Compound | hERG current change (%, negative = inhibition) at 1uM [%] |
| --- | --- |
| O=C(CCC(=O)NC1CCCCC1)NCc1ccc(F)cc1 | 9.13 |
| COC(=O)Cc1c(C)nc2nc(Cc3ccccc3)[nH]n2c1=O | 13.7 |
| Cc1ccc(Sc2c(C#N)c(-c3ccccc3)nn2C)cc1 | -1.15 |
| Cc1cc(C)nc(-n2nc(C)cc2NC(=O)CN2CCC(C)CC2)n1 | -6.44 |
| CCOC(=O)c1c(NC(=O)COc2ncnc3ccccc23)sc(C)c1CC | 0.213 |
| COc1cc(C(=O)NNC(=S)NC(=O)c2ccc(Cl)cc2)cc(OC)c1OC | 5.6 |
| N#Cc1c(NC(=O)CN2CCCCC2)sc2c1CCC2 | 6.1 |
| O=C1/C(=C\c2cccs2)SC(=S)N1C1CCS(=O)(=O)C1 (centres unmarked) | 2.81 |
| N#CC1(NC(=O)CN2C(=O)c3ccccc3C2=O)CCCCC1 | 0.0056 |
| CC(C)CC1=NN(C(=O)c2cccnc2)C(O)(C(F)(F)F)C1 (centres unmarked) | 15.4 |
| Cc1ccccc1OCc1ccc(C(=O)N2CCOCC2)o1 | 12.3 |
| Cc1onc(-c2ccccc2)c1-c1ccc(S(N)(=O)=O)cc1 | 5.67 |
| COc1ccccc1OCC(=O)N1CCNC1=O | 5.75 |
| O=[N+]([O-])c1ccc(N2CCc3ccccc3C2)nc1 | 9.14 |
| O=C(COc1ccc(F)cc1)N(Cc1cccc(Br)c1)C1CCS(=O)(=O)C1 (centres unmarked) | 11.2 |
| COc1cc(OC)cc(-c2c(-c3ccc(F)cc3)c3cc(Br)ccc3n2C)c1 | -3.32 |
| O=C(CN1CCCCCC1)Nc1ccc(Cl)cc1F | 14.6 |
| COC(=O)c1cc(NC(=O)Cc2ccccc2[N+](=O)[O-])cc(C(=O)OC)c1 | 9.41 |
| CCCc1cc(Nc2cccc(OC)c2)n2ncnc2n1 | -14.7 |
| Cc1ccccc1NC(=O)C1C2/C=C\CCCCC21 (centres unmarked) | 8.68 |
| Cc1ccc2nc(SCC(=O)Nc3cccc([N+](=O)[O-])c3)[nH]c2c1 | 3.12 |
| Cc1oc2cc(Br)c(O)c(Br)c2c1C(=O)c1ccccc1 | 4.92 |
| COc1ccc(C)cc1S(=O)(=O)N1CCN(C)CC1c1ccccc1.Cl (centres unmarked) | 10.6 |

| Compound | hERG current change (%, negative = inhibition) at 1uM [%] |
| --- | --- |
| Cc1ccc(NC(=O)C2CCN(S(=O)(=O)c3ccc4c(c3)NC(=O)CO4)CC2)cc1 | -13.4 |
| CC(C)(C)n1nc2c(c1NC(=O)c1cc(Cl)ccc1[N+](=O)[O-])CS(=O)(=O)C2 | 16.9 |
| C=CCOC(=O)C1=C[C@@H](c2cn(C(C)=O)c3ccccc23)C[C@@H](OCCCCO)O1 | 4.48 |
| CCCCNC(=O)CCn1nc(-c2ccc(C)cc2)c2ccccc2c1=O | 2.87 |
| O=C(CN1C(=O)NC2(CCCc3ccccc32)C1=O)NCc1cccs1 (centres unmarked) | 11 |
| Cc1cccc(C2c3[nH]c4ccccc4c3CCN2C(=O)c2cc(-c3cccn3C)n[nH]2)n1 (centres unmarked) | 5.01 |
| CCCS(=O)(=O)N1CCCC(C(=O)N2CCCCC2)C1 (centres unmarked) | 18.2 |
| CC(=O)c1cnc2c(-c3ccccc3)cnn2c1C | 4.96 |
| O=C(O)Cn1cc(C(=O)c2ccccc2F)c2ccccc21 | 16.8 |
| O=C(CCC(=O)N1CCOCC1)NCCc1ccc(Cl)cc1Cl | 4.48 |
| O=S(=O)(Nc1cccc(-c2nc3cccnc3s2)c1)c1cccs1 | 7.81 |
| CCOCC(O)CS(=O)Cc1ccccc1 (centres unmarked) | 10.3 |
| Cc1nn(-c2ccccc2)c2nc(=O)n(-c3ccccc3)cc12 | 9.27 |
| CN(c1ccccc1)S(=O)(=O)c1cccc(C(=O)Nc2nn[nH]n2)c1 | 7.06 |
| CCc1cc(C(=O)N/N=C/c2ccc(O)cc2O)c2ccccc2n1 | 15 |
| COc1ccc(C(=O)NC2CCN(Cc3c(F)cccc3Cl)CC2)cc1OC | 10.1 |
| CC1(C)CC(=O)C2=C(C1)NC(=O)CC2c1ccccc1F (centres unmarked) | -1.08 |
| CCN(CC)c1ccc(/C=N/NC(=O)c2ccccn2)cc1 | 10.3 |
| CCOc1ccc(CSC(=N)N)cc1.Cl | 9.77 |
| COc1ccc(CNC(=O)Oc2ccccc2)cc1Cl | 7.05 |
| COc1ccc(Cl)cc1C(=O)C1CCCN(CCO)C1 (centres unmarked) | 11.2 |
| O=C(NC1CCCCC1)C1c2ccccc2C(=O)N1Cc1ccco1 (centres unmarked) | -1.39 |
| O=C1CN(C(=O)c2cc3ccccc3oc2=O)C(c2ccc(F)cc2)c2cc(F)ccc2N1 (centres unmarked) | 4.13 |

| Compound | hERG current change (%, negative = inhibition) at 1uM [%] |
| --- | --- |
| COc1ccc([C@@H]2CC=C(C(=O)O)[C@H](c3ccccc3)N2S(=O)(=O)c2ccccc2C)cc1 | 11.2 |
| O=C(Nc1cc(Cl)cc(Cl)c1)c1ccc(Cn2c(=O)[nH]c3ccsc3c2=O)cc1 | 6.12 |
| CCOc1ccccc1Oc1cn[nH]c1-c1ccc(O)cc1O | 9.91 |
| O=C1NN(c2ccccc2)C(=O)/C1=C\c1cccc(OC(=O)c2cccs2)c1 | 8.42 |
| Cc1ccc([N+](=O)[O-])cc1S(=O)(=O)N1CCCN(C)CC1.Cl | 15.8 |
| CNCc1ccccc1OCc1ccccc1F.Cl | 9.82 |
| CC(C)OCCCNC(=O)CCCC(=O)Nc1ccc(OCCc2ccccc2)cc1 | 17.8 |
| C=COCCNC(=O)Nc1ccc(Cl)cc1Cl | 8.22 |
| O=C(CCc1ccccc1)NNC(=S)Nc1ccc(F)cc1 | 4.35 |
| CCOc1ccccc1C1CC(c2ccc(Br)cc2)Nc2nc(N)nn21 (centres unmarked) | -9.81 |
| CN(C)CCCN(Cc1cc2cc3c(cc2[nH]c1=O)OCO3)C(=S)Nc1cccc(Cl)c1 | -4.06 |
| COc1cc(NS(=O)(=O)c2ccc(NC(=S)NC(=O)c3ccc(F)cc3)cc2)nc(OC)n1 | 0.221 |
| C=CCNc1nc(Nc2ccccc2F)nc(OCC)n1 | 5.09 |
| COc1cc(/C=C(\C#N)c2[nH]nc(N)c2C#N)cc(OC)c1O | 20.9 |
| COc1ccc(OC)c(C(=O)c2ccc(C(=O)Nc3cccc4ccccc34)cc2)c1 | 15.1 |
| CC(C)CC1NC(=O)N(CC(=O)c2ccc3c(c2)OCCO3)C1=O (centres unmarked) | 9.81 |
| CC1C(=O)C(C)C(c2ccccc2F)NC1c1ccccc1F (centres unmarked) | 7.91 |
| O=C(Cc1ccc(Nc2nc(=S)[nH]c3ccccc23)cc1)NC1CCCCC1 | 19.8 |
| CC(=O)Nc1ccccc1NC(=O)c1cc(C)cc(C)c1 | 11.5 |
| Cc1ccc(NS(=O)(=O)c2ccc(Br)s2)cc1S(=O)(=O)N1CCOCC1 | 13.2 |
